Reference: the supplement of paper PMC3334620
Whole data set: some 33,000 sequences, median “E-score (-0.5 to 0.5)” near -0.011, cut for the highest 2% near 0.28. Some of the results follow.

What follows are sequences tested against T1, Gcr1 (UniProt P07261) (assay: PBM E-score (8-mer binding enrichment) (E-score (-0.5 to 0.5)); higher = stronger / more preferred TF binding; most listed sequences are background and not binding sites). Settings: protein concentration: 100 nM; construct: GST-full length.
T1 sequence: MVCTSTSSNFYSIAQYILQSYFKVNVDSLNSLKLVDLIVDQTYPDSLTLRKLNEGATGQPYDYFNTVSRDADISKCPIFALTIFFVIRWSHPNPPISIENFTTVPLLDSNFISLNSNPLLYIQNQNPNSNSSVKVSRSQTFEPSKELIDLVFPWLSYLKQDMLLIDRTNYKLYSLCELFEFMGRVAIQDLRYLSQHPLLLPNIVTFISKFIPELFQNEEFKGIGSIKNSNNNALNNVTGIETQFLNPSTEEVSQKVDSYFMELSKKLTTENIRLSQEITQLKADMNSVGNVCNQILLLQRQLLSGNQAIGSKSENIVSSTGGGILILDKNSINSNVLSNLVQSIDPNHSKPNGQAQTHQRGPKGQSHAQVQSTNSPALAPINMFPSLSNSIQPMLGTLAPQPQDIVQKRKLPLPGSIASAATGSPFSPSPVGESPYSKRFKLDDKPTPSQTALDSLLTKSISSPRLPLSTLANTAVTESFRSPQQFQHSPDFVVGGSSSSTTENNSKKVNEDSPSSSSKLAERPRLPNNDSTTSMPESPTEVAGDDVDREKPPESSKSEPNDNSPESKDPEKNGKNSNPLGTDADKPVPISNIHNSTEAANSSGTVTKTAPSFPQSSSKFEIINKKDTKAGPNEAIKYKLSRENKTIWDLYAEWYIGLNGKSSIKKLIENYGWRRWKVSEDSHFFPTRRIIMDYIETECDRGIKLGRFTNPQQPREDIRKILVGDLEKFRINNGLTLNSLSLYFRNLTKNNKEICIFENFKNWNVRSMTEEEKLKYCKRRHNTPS
Outline: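 Detection of bound protein used fluorescent anti-GST, with scans normalised by masliner. The proteins were GST-tagged yeast transcription factors applied at about 100-200 nM to universal all-10-mer Agilent arrays made double-stranded by primer extension. Each ungapped eight-base word, pooled with its reverse complement, was scored with an E-score from the Universal PBM Analysis Suite.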

| Sequence | PBM E-score |
| --- | --- |
| GCTCCTAA | 0.144 |
| AGGATCCC | 0.379 |
| CTTCCAGA | 0.341 |
| CGGCGTAA | 0.0298 |
| CTCATACA | -0.274 |
| AATTCCAA | 0.308 |
| TATTAGGA | 0.262 |
| ATCGGCCC | -0.212 |
| AAACAGAA | 0.22 |
| CCTCACTA | -0.115 |
| CGACAGCA | -0.211 |
| GTCGCATA | 0.0683 |
| GACATGCA | 0.028 |
| ATGGGTCG | 0.0409 |
| GCATGTGA | -0.287 |
| ACTGGCAG | 0.17 |
| GATCTCGA | 0.0386 |
| AGATACAG | 0.0131 |
| ACCTGAGT | -0.167 |
| CGACCTTC | -0.176 |
| AGGCCTTC | -0.146 |
| CCTTTGGA | 0.0993 |
| ATTACTTC | -0.0314 |
| AGTCCCCC | -0.159 |
| AGAAGAAT | 0.119 |

| Sequence | PBM E-score |
| --- | --- |
| CACTCACC | -0.104 |
| AAGGCTCT | -0.187 |
| ATGTCCCC | -0.0406 |
| AGCCCATG | -0.0306 |
| AGTCTCGG | -0.201 |
| ATGGCATA | -0.165 |
| CTCTTAAA | 0.0108 |
| CTTATATC | 0.0695 |
| CCTAATCA | 0.211 |
| AGATCCCC | 0.156 |
| AGGATAGA | 0.05 |
| ATACTGCA | 0.0345 |
| CAGATCAG | -0.144 |
| CGCCACTC | 0.0754 |
| ACTGGATC | 0.316 |
| AGCCCTAA | 0.0796 |
| ACACACGA | 0.0479 |
| CTATCCAC | 0.0657 |
| CGACTATA | 0.0834 |
| GAGGTGCA | -0.125 |
| AGAGAAAT | 0.0413 |
| AAACGTGG | 0.0189 |
| AGATAATA | 0.0377 |
| AAATGAAT | -0.0755 |
| CGTTCCTA | 0.15 |

| Sequence | PBM E-score |
| --- | --- |
| AAAGCGCC | 0.0699 |
| ACCTTGAC | -0.0262 |
| ACATCCTC | 0.0229 |
| ATCTCACC | -0.129 |
| TAATGGCA | 0.295 |
| CTCTTGCA | -0.139 |
| TTGGCAAA | -0.142 |
| CGGCCAAG | -0.27 |
| GGGTAGAC | -0.115 |
| CTAGTCAA | -0.198 |
| ACCATGAT | -0.223 |
| CCATTGCC | -0.252 |
| CCGAATCC | 0.133 |
| CCGATGAG | -0.151 |
| GGTGTGTA | 0.0291 |
| GCTCAAGA | 0.0121 |
| CTGTATTC | 0.124 |
| AGTCTCCA | 0.0915 |
| CTCCGCGA | 0.0908 |
| CGCTCGCC | 0.0134 |
| CAGGACGG | -0.182 |
| ACAGTGCT | -0.124 |
| ATCTCAAT | 0.0778 |
| ACGCTAAT | 0.0647 |
| AATATACA | -0.0364 |

| Sequence | PBM E-score |
| --- | --- |
| GGTGGTGA | 0.0438 |
| CGTGTTCA | -0.0157 |
| TAACCTTA | 0.0015 |
| ATATGTCG | 0.111 |
| ACGAACTC | 0.0909 |
| CTCCTTAA | -0.0427 |
| GGCTGGAC | -0.207 |
| AGTCACTG | -0.105 |
| ATTTAAAC | 0.0926 |
| TAGTTAGA | -0.0205 |
| ACTCAATC | -0.172 |
| ATGTTAGC | -0.154 |
| AGTTGCAC | -0.0239 |
| AGTCGTGC | -0.103 |
| AGGTCCCC | 0.132 |
| CAGGTGCG | 0.0545 |
| ACTGGCTC | -0.0201 |
| AATCAACG | -0.0901 |
| ACGTTCGC | -0.286 |
| TATGGACA | 0.0384 |
| CCATGAAC | 0.0264 |
| AGAACGGC | -0.164 |
| CTACAGGC | 0.104 |
| CACTTCGA | 0.163 |
| GCCACGCC | -0.138 |

| Sequence | PBM E-score |
| --- | --- |
| ATAGCGTC | 0.255 |
| GTCGAAAC | -0.153 |
| ATGAACGC | 0.0593 |
| CAAAAATA | 0.197 |
| GGTTGTAC | -0.00016 |
| CTATCCGA | -0.176 |
| CAGACTGG | -0.08 |
| CCACATCC | -0.0273 |
| CAATAATG | 0.00993 |
| TGAAGAAA | 0.0487 |
| GAAGACAA | -0.0743 |
| TCCTATAA | 0.334 |
| GCCTAGAA | 0.00611 |
| GATTCAGC | -0.113 |
| ACATGTTG | 0.0619 |
| CCAAATCC | 0.00339 |
| ACATTTCC | 0.0691 |
| GCGAGGGA | -0.142 |
| GTTCCTAA | 0.237 |
| ACATTGAC | -0.117 |
| CCAACTCA | -0.071 |
| GCATGAGA | -0.0609 |
| CGAGCTCC | -0.0144 |
| CCTCACAC | -0.324 |
| ACTACTGC | -0.0813 |

| Sequence | PBM E-score |
| --- | --- |
| CAAAGGTA | -0.00372 |
| TGTTCCAA | 0.112 |
| GGCACAAC | 0.0546 |
| ATAAAACG | 0.0597 |
| ACTTTGGC | -0.0848 |
| ACTATCGA | -0.0816 |
| CTCGCTGA | -0.164 |
| CCGCAGCG | 0.0315 |
| GAACCGTA | -0.0954 |
| GCGTAAAC | 0.107 |
| CAAACGGG | 0.0171 |
| AGGGGTGA | 0.0779 |
| AGACCGGC | -0.0223 |
| AATGTCCC | -0.0296 |
| CAGGGAAA | -0.0422 |
| AAGCTGGC | -0.00364 |
| AGGCGACA | -0.105 |
| ATACATTA | 0.109 |
| GATATGGA | 0.0843 |
| AGGTTCGG | -0.0598 |
| ATCCGTGG | -0.176 |
| AATCCGAA | 0.259 |
| GCATTTCA | 0.0146 |
| AGAACCGA | -0.05 |
| GCGACCAC | 0.232 |

| Sequence | PBM E-score |
| --- | --- |
| CAGAACCC | 0.208 |
| CTGCCCTC | -0.0917 |
| GACTAGTC | -0.431 |
| AGTATACC | -0.0235 |
| CACATCTA | -0.144 |
| GTACCCAA | -0.00617 |
| ATTTCATC | 0.0139 |
| GCGCCACC | -0.185 |
| GCGCGGGA | -0.155 |
| CGTATCCC | 0.189 |
| AGAACCAG | 0.0955 |
| CGCACCAG | 0.118 |
| GGTTCAAA | -0.0629 |
| ATTAAGTG | 0.0922 |
| TATAATGA | 0.174 |
| CAGGAATC | 0.394 |
| GCAAAAAA | 0.0787 |
| ATTCCGGA | 0.197 |
| GAAAAAGA | 0.115 |
| GCCCTGTA | 0.0785 |
| AGTACTTC | 0.0452 |
| GTTTTCTA | 0.0859 |
